Measured values taken from article PMC4336329 (PLoS ONE, 2015).
In all, about 310,000 compounds went through this assay and about 2,200 (0.71%) showed an effect of 50% or more. The effect is printed as a negative number. The list shows a part of the results.

target: human ether-à-go-go-related gene (hERG) potassium channel (human, UniProt Q12809); test: primary screen, population patch clamp on CHO cells stably expressing hERG
Sequence (Q12809 whole entry, looked up): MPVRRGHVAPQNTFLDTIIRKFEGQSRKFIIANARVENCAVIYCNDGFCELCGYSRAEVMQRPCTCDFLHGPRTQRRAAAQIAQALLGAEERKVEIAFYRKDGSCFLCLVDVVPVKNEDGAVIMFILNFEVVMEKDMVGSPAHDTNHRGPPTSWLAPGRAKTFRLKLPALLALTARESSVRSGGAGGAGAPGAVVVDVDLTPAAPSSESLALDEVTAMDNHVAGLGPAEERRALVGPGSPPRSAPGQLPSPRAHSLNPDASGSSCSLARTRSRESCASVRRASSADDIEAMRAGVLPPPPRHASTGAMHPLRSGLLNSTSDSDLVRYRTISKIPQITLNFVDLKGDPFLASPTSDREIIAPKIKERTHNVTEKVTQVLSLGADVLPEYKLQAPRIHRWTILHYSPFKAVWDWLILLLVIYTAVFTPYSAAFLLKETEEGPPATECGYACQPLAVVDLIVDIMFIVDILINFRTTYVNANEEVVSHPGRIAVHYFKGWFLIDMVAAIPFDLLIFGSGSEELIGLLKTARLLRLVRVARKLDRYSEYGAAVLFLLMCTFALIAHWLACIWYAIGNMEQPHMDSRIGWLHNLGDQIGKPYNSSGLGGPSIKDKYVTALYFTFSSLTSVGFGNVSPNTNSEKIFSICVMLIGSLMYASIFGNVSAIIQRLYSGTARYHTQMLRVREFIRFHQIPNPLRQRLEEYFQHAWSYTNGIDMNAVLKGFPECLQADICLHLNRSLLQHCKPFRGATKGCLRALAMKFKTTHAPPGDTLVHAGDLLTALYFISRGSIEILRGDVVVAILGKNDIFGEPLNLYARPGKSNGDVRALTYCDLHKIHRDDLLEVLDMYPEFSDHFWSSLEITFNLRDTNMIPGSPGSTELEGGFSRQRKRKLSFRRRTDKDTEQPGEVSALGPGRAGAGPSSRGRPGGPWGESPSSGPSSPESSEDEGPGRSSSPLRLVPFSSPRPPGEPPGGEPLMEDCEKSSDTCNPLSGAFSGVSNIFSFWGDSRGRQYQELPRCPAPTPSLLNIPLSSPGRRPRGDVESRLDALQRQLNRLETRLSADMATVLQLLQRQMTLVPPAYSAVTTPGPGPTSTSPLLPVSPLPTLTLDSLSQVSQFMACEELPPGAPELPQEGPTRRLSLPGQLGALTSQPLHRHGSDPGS

| SMILES | hERG current change (%, negative = inhibition) at 1uM [%] |
| --- | --- |
| COc1cc(/C=N/Nc2ccc(Cl)c(C(=O)O)c2)ccc1OC(=O)c1cccs1 | 5.92 |
| CCn1c(SCc2ccc(C(=O)Nc3nccs3)cc2)nnc1-c1ccc(NC(C)=O)cc1 | -1.35 |
| CCOC(=O)c1cc(C(=O)n2cc(Cl)cn2)nn1C | 11.3 |
| CN(N=Nc1cccc([N+](=O)[O-])c1)c1cccc([N+](=O)[O-])c1 | 2.49 |
| O=C(N/N=C/c1ccc[nH]1)c1ccncc1 | 9.61 |
| Cn1c(N2CCCCC2)cc(=O)n(C)c1=O | 20.3 |
| COC(=O)C1=C(C)NC2=C(C(=O)c3ccccc32)C1c1ccc(-c2ccc(C(=O)O)cc2)o1 (centres unmarked) | 13.8 |
| CS(=O)(=O)N1c2ccccc2[C@@]2(Br)C[C@H]3C(=O)N[C@@H](Cc4ccccc4)C(=O)N3[C@@H]12 | 4.5 |
| COc1ccc(NC(=O)Nc2ccc(C(=O)N3CCOCC3)cc2)cc1OC | 15.4 |
| CN(C(=O)CSc1nnc(-c2c[nH]c3ccccc23)o1)C1CCS(=O)(=O)C1 (centres unmarked) | 5.04 |
| CCn1c(SCC(=O)O)nc2ccccc21 | 9.72 |
| Cc1cccc(C(=O)NCCCN(C)CCCNC(=O)c2cccc(C)c2)c1 | 1.03 |
| Cn1c(SCC(=O)NCC2CCCO2)nc2c([nH]c3ccccc32)c1=O (centres unmarked) | 1.07 |
| COc1ccc(S(=O)(=O)N2CCOCC2)cc1NC(=O)COC(=O)C1=COCCO1 | 14.1 |
| COc1cccc(NC(=O)COC(=O)COc2ccccc2[N+](=O)[O-])c1 | 0.148 |
| Cc1ccc(NC(=O)CN(C)CC(=O)Nc2ccccc2-c2ccccc2)cc1 | -15.3 |
| Cc1ccc(NC2CCCN(C(=O)CSc3ccncc3)C2)cc1C (centres unmarked) | -6.38 |
| COc1cc(C(=O)Nc2cc(Cl)ccc2C)c(-n2cnnn2)cc1OC | 14.6 |
| OCCN(Cc1ccccc1)Cc1cccc(Cl)c1Cl | 7.44 |
| CCCc1c(C)nc(-c2ccc(C)cc2)nc1OC(=O)N(C)C | 10.3 |
| COc1ccccc1NS(=O)(=O)c1cc(-c2cnc(C3CC3)o2)ccc1C | 10.9 |
| CC(C)(C)OC(=O)N1CCC(c2c(C(=O)NCC3CCN(C4CCCC4)C3)cnn2-c2ccc(F)cc2)CC1 (centres unmarked) | 1.45 |
| O=C(NC1CCc2ccccc21)C1CCN(S(=O)(=O)c2ccc(-n3cnnn3)cc2)CC1 (centres unmarked) | -0.0102 |

| SMILES | hERG current change (%, negative = inhibition) at 1uM [%] |
| --- | --- |
| CCOC(=O)Nc1cc(=O)c2ccccc2o1 | -1.37 |
| O=C(CN1CCN(c2ccc(O)cc2)CC1)NC(=O)NCc1ccco1 | -1.36 |
| O=C1[C@H]2[C@@H](C(=O)N1c1cc(Cl)cc(Cl)c1)[C@]1(C(=O)Nc3ccccc31)N1CCC[C@@H]21 | 4.86 |
| CC(C)CNC(=O)c1cccc(NC(=O)COc2cccc([N+](=O)[O-])c2)c1 | 4.93 |
| CCOc1cccc(C(=O)Nc2ccccc2C(=O)N2CCOCC2)c1 | 12.2 |
| COc1cc(OC)c(NC(=O)c2ccccc2F)cc1Cl | 7.59 |
| Cc1cc(C)c(S(=O)(=O)N2CCC(C(=O)NCc3ccc(Cl)cc3Cl)CC2)c(C)c1 | 3.25 |
| O=C(Nc1nc2cc3c(cc2s1)OCCO3)c1ccco1 | 10.3 |
| CCOC(=O)c1sc(=S)n(-c2ccccc2)c1NC(C)=O | 16.4 |
| COc1ccc(NC(=S)N2CCC(C(=O)c3ccc(F)cc3)CC2)c(OC)c1 | 5.93 |
| O=C(Cn1[nH]c(=O)c2ccccc2c1=O)Nc1cccc(-c2nnc3n2CCCCC3)c1 | 2.85 |
| Cc1ccc(-n2cc3ccc([N+](=O)[O-])cc3n2)cc1 | 12.2 |
| O=S(=O)(NCC1OCCc2ccccc21)c1ccc(S(=O)(=O)N2CCOCC2)cc1 (centres unmarked) | 3.94 |
| Cc1ccccc1C(C(=O)NC1CCCC1)N(C(=O)CNC(=O)c1ccco1)c1cccnc1 (centres unmarked) | 10.5 |
| CCN(CC(=O)Nc1c(F)cccc1F)C(=O)C1CCC1 | 5.67 |
| CC(C)(C)n1nc2c(c1NC(=O)CCCc1ccccc1)CS(=O)C2 (centres unmarked) | 12.7 |
| O=C(CCNC(=O)C1CCN(S(=O)(=O)c2ccccc2)CC1)NCc1ccc(Cl)c(Cl)c1 | 0.367 |
| CC(C)CC(=O)Nc1nnc(S(=O)(=O)N2CCCCCC2)s1 | 4.45 |
| C=CCNC(=S)NNC(=O)c1ccco1 | -0.0409 |
| COc1cccc(OCc2cc(C(=O)N3CCN(c4ccccc4O)CC3)no2)c1 | 24.7 |
| CCCc1nnc(NC(=O)CS(=O)(=O)c2ccc(C)cc2)s1 | 13.6 |
| O=C(NCCCN1CCCC1=O)c1ccc2c(c1)NC(=O)c1ccccc1S2 | 14.9 |
| ClC1C(Cl)C(Cl)C(Cl)C(Cl)C1Cl (centres unmarked) | 11.8 |

| SMILES | hERG current change (%, negative = inhibition) at 1uM [%] |
| --- | --- |
| CCOc1ccc(CNC(=O)CCCc2cn(C)c3ccccc23)cc1 | 9.98 |
| O=C(Nc1ccc(NC(=O)c2ccc(Cl)c(S(=O)(=O)N3CCOCC3)c2)cc1)c1ccccc1 | 1.11 |
| O=C(COC(=O)CCC(=O)c1ccc(F)cc1)Nc1ccc(F)cc1F | 9 |
| O=C(COc1ccc(Br)cc1)N1CCN(Cc2c[nH]c3ccccc23)CC1.O=C(O)C(=O)O | 0.797 |
| CC(C)CNc1nc(=S)nc(N(C)C)[nH]1 | 7.75 |
| COc1cc2[nH]cc(C(=O)NCCc3ccccc3)c(=O)c2cc1OC | -12.5 |
| CCOc1ccc(NC(=O)CN(C)C(=O)c2c(C)nn(-c3ccccc3)c2Cl)cc1OCC | 6.74 |
| O=c1c2ccccc2ncn1-c1ccccc1F | 11.5 |
| CCOC(=O)c1cccc(NC(=O)CSc2nc(N)cc(N)n2)c1 | 7.84 |
| CC(C)c1nnc(NC(=O)CCS(=O)(=O)c2ccccc2)s1 | 20.1 |
| CC(C)Cc1nc(SCC(=O)Nc2ccc(S(N)(=O)=O)cc2)n[nH]1 | -2.24 |
| COc1cccc(CN2CCNC(=O)C2CC(=O)N(C)C2CCOCC2)c1 (centres unmarked) | 9.15 |
| Cc1ncc(CO)c(/C=N/Nc2cccc(Cl)n2)c1O.Cl | 17.1 |
| COc1ccc(/C=C/C(=O)NC(=S)Nc2ccc(Br)cn2)cc1 | 13.1 |
| CCOC(=O)NC(NC(=S)Nc1ccc(OC)cc1)C(Cl)(Cl)Cl (centres unmarked) | 4.33 |
| Cc1cc(C)c(S(=O)(=O)c2ccc(F)cc2C)c(=O)[nH]1 | 17.2 |
| COc1ccc(OC)c(C(=O)CSc2nc3cccnc3n2C)c1 | 9.65 |
| COc1ccc2[nH]c(O)c(NC(C)=O)c2c1 | 2.32 |
| O=c1ccc(Cc2ccc(Cl)cc2)n[nH]1 | 12.6 |
| COc1cc(NC(=O)c2ccccc2)ccc1NC(=O)Cc1ccccc1 | 13.4 |
| CCOC(=O)C1=NOC2C3CC(C12)C1C(=O)N(CCc2ccc(OC)c(OC)c2)C(=O)C31 (centres unmarked) | 11.9 |
| CC(NC(=O)c1ccncc1)C(C)(C)C (centres unmarked) | 3.98 |
| CCc1cc(C(=O)Nc2ccc(C)cc2Br)cs1 | 14.1 |

| SMILES | hERG current change (%, negative = inhibition) at 1uM [%] |
| --- | --- |
| Cc1cc2nc(C3CCCN(C(=S)Nc4ccccc4)C3)[nH]c2cc1C (centres unmarked) | 16.3 |
| O=C(c1cccc(N2CCCC2=O)c1)N1CCOCC1 | 8.37 |
| O=C(C1CCCO1)N1CCN(C(=S)Nc2ccccc2)CC1 (centres unmarked) | -17.7 |
| O=C(Nc1ccccc1)NC1(C(=O)NCc2ccc3c(c2)OCO3)CCCCC1 | 20.8 |
| COc1ccc(CC(=O)N(Cc2ccccc2)c2ccccc2)cc1S(=O)(=O)N1CCOCC1 | 17 |
| Cc1oc2ccc(OC(=O)c3cccs3)cc2c1C(=O)OC(C)C | 6.01 |
| Cc1ccc(C)c(NC(=S)NC(NC(=O)Cc2cccc3ccccc23)C(Cl)(Cl)Cl)c1 (centres unmarked) | 4.51 |
| CN1CCN(C2Cc3ccccc3Sc3cc(C(F)(F)F)ccc32)CC1.O=C(O)/C=C\C(=O)O (centres unmarked) | -2.36 |
| CCOC(=O)C1(Cc2cccc(F)c2)CCN(CC2CC2)CC1 | -2.54 |
| Cc1nc2ccccc2c(=O)n1-c1ccc([N+](=O)[O-])cc1 | 11.2 |
| Cc1c(/C=N/N2C(=O)C3C4C=CC(C4)C3C2=O)c2ccccc2n1C (centres unmarked) | 9.84 |
| CCOC(=O)C1CCCN(S(=O)(=O)c2cc3c4c(c2)CCN4C(=O)CC3)C1 (centres unmarked) | -4.3 |
| Cc1ccc(OC(=S)Nc2ccccc2)c(C)c1 | 5.51 |
| Cc1ccc(S(=O)(=O)N2CCN(C(=O)c3cccs3)CC2)cc1 | 12.3 |
| Cn1ncc(-c2ccno2)c1C(=O)O | 21.6 |
| COc1ccc(C(=O)N(CN2CCCC2=O)c2ccccc2OC)cc1OC | 0.603 |
| Fc1cccc(Cl)c1Cn1nnc(-c2ccc3c(c2)OCO3)n1 | 1.27 |
| Cc1cccc(NC(=O)Nc2c(C)n(C)n(-c3ccccc3)c2=O)c1 | 9.37 |
| CCOc1ccc(C2CC(c3ccc(F)cc3)Nc3nc(N)nn32)cc1 (centres unmarked) | 1.04 |
| Cc1cc(NC(=O)c2ccco2)ncc1NC(=O)CCc1ccccc1 | 0.856 |
